The record followed here is doi:10.1101/2023.12.29.573648 (bioRxiv, 2023).

This assay has as its target T1, 10xHis-CAPRIN1 (recombinant human CAPRIN1 from insect cells) (human, UniProt Q14444 1-709).
T1 sequence (looked up): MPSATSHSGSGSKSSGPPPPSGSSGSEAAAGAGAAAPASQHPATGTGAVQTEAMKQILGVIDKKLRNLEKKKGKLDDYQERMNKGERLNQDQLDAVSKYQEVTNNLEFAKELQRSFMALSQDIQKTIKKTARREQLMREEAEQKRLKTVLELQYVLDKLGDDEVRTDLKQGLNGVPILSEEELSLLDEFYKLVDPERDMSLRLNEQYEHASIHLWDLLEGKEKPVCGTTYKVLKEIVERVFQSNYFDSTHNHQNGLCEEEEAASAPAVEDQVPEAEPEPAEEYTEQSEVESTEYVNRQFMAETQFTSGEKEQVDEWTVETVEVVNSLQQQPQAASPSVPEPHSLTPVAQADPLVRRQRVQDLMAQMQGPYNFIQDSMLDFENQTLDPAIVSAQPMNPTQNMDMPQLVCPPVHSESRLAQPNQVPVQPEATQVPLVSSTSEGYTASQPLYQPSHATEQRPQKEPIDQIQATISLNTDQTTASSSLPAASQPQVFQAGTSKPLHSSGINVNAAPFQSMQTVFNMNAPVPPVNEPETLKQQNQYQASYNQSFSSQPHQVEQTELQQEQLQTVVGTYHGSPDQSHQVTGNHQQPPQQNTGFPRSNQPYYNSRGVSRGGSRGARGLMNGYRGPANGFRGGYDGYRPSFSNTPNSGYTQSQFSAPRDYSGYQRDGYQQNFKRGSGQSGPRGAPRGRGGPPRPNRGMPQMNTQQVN
In words: SPR. Background: In SPR one partner is held on a chip, and binding of the other changes the refractive index at the surface.

B1: 10xHis-MBP-APP695 (recombinant full-length human APP695 from insect cells) (natural protein)
chain: LEVPTDGNAGLLAEPQIAMFCGRLNMHMNV[skipping about 40 residues]ANQPVTIQNWCKRGRKQCKTHPHFVIPYRCLVGEFVSDALLVPDKCKFLHQERMDVCETHLHWHTVAKETCSEKSTNLHDYGMLLPCGIDKFRGVEFVCCPLAEESDNVDSADAEEDDSDVWWGGADTDYADGSEDKVVEVAEEEEVAEVEEEEADDDEDDEDGDEVEEEAEEPYEEATERTTSIATTTTTTTESVEEVVRVPTTAASTPDAVDKYLETPGDENEHAHFQKAKERLEAKHRERMSQVMREWEEAERQAKNLPKADKKAVIQHFQEKVESLEQEAANERQQLVETHMARVEAMLNDRRRLALENYITALQAVPPRPRHVFNMLKKYVRAEQKDRQHTLKHFEHVRMVDPKKAAQIRSQVMTHLRVIYERMNQSLSLLYNVPAVAEEIQDEVDELLQKEQNYSDDVLANMISEPRISYGNDALMPSLTETKTTVELLPVNGEFSLDDLQPWHSFGADSVPANTENEVEPVDARPAADRGLTTRPGSGLTNIKTEEISEVKM[skipping about 100 residues]
Turning to B1, the “fold decrease of koff with 0152 against no compound” value is 10 fold, the “fold increase of kon with 0152 against no compound” value amounted to 3.5 fold and the “fold reduction of KD with 0152 against no compound” value amounted to 36 fold.
